Measurements reported in PubChem BioAssay AID1460 (National Center for Advancing Translational Sciences (NCATS), 2008).
About 5,800 (2.1%) of roughly 270,000 compounds were called active. Inconclusive means that the source gave no clear call. Such entries were picked first, then a sample of the others. Calls come from the whole dose curve; as a rule, active = well fitted inhibition curve with a large enough effect; inconclusive = small, poorly fitted or top-dose-only effect; inactive = flat fitted curve, though single readings scatter. Potencies beside an inconclusive call are fits to weak or partial responses and may not hold up.

target: Microtubule-associated protein tau (Homo sapiens) (UniProt P10636); assay: qHTS for Inhibitors of Tau Fibril Formation, Thioflavin T Binding; settings: recombinant tau K18 P301L (four-repeat tau fragment), heparin-induced fibrillization, ThT fluorescence; series mostly up to 57.4 µM; activity, negative = inhibition: at the top concentration; note: nearly all actives have a fitted effect of over 55% in size
UniProt P10636, sequence (P10636 whole entry, looked up, the tested form may be a part): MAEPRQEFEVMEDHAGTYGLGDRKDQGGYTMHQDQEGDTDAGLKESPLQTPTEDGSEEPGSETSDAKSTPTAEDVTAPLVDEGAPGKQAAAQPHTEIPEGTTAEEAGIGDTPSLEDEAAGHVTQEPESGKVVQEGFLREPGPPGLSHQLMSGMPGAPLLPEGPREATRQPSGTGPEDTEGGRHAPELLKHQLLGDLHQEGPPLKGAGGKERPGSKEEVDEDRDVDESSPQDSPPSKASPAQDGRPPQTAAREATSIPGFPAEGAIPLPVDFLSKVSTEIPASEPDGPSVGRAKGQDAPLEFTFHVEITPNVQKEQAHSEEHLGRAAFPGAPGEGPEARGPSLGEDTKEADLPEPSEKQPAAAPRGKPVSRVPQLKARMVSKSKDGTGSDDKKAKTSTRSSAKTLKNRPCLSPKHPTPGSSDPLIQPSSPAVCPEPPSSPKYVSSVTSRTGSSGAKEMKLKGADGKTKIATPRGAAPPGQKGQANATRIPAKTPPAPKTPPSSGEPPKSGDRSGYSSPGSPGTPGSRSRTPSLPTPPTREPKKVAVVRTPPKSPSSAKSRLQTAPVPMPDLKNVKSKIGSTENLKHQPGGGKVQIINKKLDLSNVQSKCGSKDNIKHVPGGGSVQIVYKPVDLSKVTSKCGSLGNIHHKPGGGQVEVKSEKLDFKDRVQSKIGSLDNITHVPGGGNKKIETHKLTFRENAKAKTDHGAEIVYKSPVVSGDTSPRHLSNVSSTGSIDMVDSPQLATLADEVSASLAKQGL
How it was run: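 Recombinant human tau K18 fragment […] carrying P301L, 15 uM unlabeled plus 0.24 uM Alexa 594-labeled, was fibrillized with 20 uM heparin in 100 mM sodium acetate pH 7 for 6 hr at 37 C; 30 uM ThT fluorescence read after 1 hr.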
% is set by controls: 0 for no effect and ±100 for the full control effect; potency is the fitted concentration of half-maximal effect; tags give direction and shape of the fitted curve.

Compound | Potency | activity, negative = inhibition
O=C(NNC(=S)Nc1ccc(Cl)cc1)c1cccs1 | inconclusive: 12.6 µM [inhibitor, partial curve, poor fit] | –
CC1(C)CC(=O)c2ccc(OCc3ccc([N+](=O)[O-])cc3)cc2O1 | inconclusive: 39.8 µM [inhibitor, single point] | –
CCC(C)c1ccc(NC(=S)Nc2ccc(OC)c(OC)c2)cc1 (centres undefined) | inconclusive: 20 µM [inhibitor, single point] | –
Cc1ccc(C2C(C#N)=C(N)N(c3cccnc3)C3=C2C(=O)CCC3)s1 (centres undefined) | inconclusive: 31.6 µM [inhibitor, single point] | –
CC1CCN(c2nc3c(c(=O)n(C)c(=O)n3C)n2CCSc2nc3ccccc3s2)CC1 | – | inactive: -6.43%
CCN(CC)c1cc(C)c2cc(NC(=O)/C=C/c3ccccc3OC(C)C)ccc2n1 | inconclusive: 2.82 µM [inhibitor, full curve] | –
Cc1ccc(Oc2nc3ccccn3c(=O)c2/C=C(\C#N)c2nc3ccccc3s2)c(C)c1 | inconclusive: 14.1 µM [inhibitor, partial curve] | –
CCN(CC)c1ccc(NS(=O)(=O)c2ccc(-c3coc(C)n3)cc2)c(C)c1 | inconclusive: 15.8 µM [inhibitor, partial curve] | –
CCc1nnc(NC(=S)Nc2ccccc2)s1 | – | inactive: -14.9%
CCOc1ccc(-c2cc(C(=O)NCCc3ccccc3)c3c(-c4ccc(C)cc4)[nH]nc3n2)cc1 | – | inactive: -4.89%
CC(C)Oc1ccc(Br)cc1/C=N\NC(N)=S | inconclusive: 12.6 µM [inhibitor, single point] | –
O=C(/C=C/c1ccccc1)c1ccc2c(c1)OCCCCO2 | inconclusive: 12.6 µM [inhibitor, partial curve] | –
O=C(Nc1ncc(Cc2ccccc2Cl)s1)C1=NCCN1 | – | inactive: -0.294%
COc1ccc(NC(=S)N2CCCC2c2ccc(OC)c(OC)c2)cc1 (centres undefined) | inconclusive: 39.8 µM [inhibitor, single point] | –
Cc1ccc(-n2nc(C)c3c(C(=O)O)cc(C)nc32)cc1 | – | inactive: 6.36%
O=C(CSc1nc2ccccc2o1)Nc1ccc(N2CCOCC2)c(Cl)c1 | inconclusive: 12.6 µM [inhibitor, partial curve, poor fit] | –
O=C(Cn1ncc2c1-c1ccccc1OC2)N(Cc1ccco1)C1CCCCC1 | inconclusive: 7.94 µM [inhibitor, partial curve] | –
CCOc1ccccc1CNC(=O)C1CCN(C(=O)c2sccc2-n2cccc2)CC1 | – | inactive: -3.89%
C/C(=N\Nc1nc(-c2ccc(C)cc2C)cs1)c1cc2ccccc2oc1=O | inconclusive: 8.91 µM [inhibitor, single point] | –
Cc1ccc(NC(=S)c2nc3ccccc3[nH]2)c(C)c1 | inconclusive: 15.8 µM [inhibitor, partial curve] | –
COc1cccc(/C=C/C(=O)OCC(=O)c2c[nH]c3ccccc23)c1OC | – | inactive: -7.94%
Cc1oc(/N=C/c2c(O)ccc3ccccc23)c(C#N)c1C | active: 17.8 µM | –
COc1ccc(-c2nc(C)sc2CC(=O)O)cc1 | – | inactive: -0.185%

Compound | Potency | activity, negative = inhibition
c1ccc2sc(N3CCN(Cc4nnnn4CC4CCCO4)CC3)nc2c1 (centres undefined) | – | inactive: -13.1%
O=[N+]([O-])c1ccc(Cl)c(C2Nc3cccc4cccc(c34)N2)c1 | inconclusive: 10 µM [inhibitor, partial curve] | –
CCOC(=O)c1c(N)sc(C(=O)Nc2ccccc2F)c1C | inconclusive: 10 µM [inhibitor, partial curve] | –
COc1cc2ccc(=O)oc2c(O)c1O | inconclusive: 14.1 µM [inhibitor, partial curve] | –
COc1ccc(C(=O)[C@H]2[C@H]3C(=O)N(c4ccccc4)C(=O)[C@H]3C3C=CC=NN32)cc1 (some centres undefined) | inconclusive: 20 µM [inhibitor, partial curve] | –
O=C(N/N=C\c1cc(Br)cs1)C1COc2ccccc2O1 (centres undefined) | inconclusive: 14.1 µM [inhibitor, partial curve] | –
Cc1cccc(-c2nc(CS(=O)CC(=O)N3CCc4ccccc4C3)c(C)o2)c1 (centres undefined) | inconclusive: 14.1 µM [inhibitor, partial curve] | –
COc1cc(/C=C2\SC(=S)N(N(C)c3ccccc3)C2=O)ccc1O | active: 25.1 µM | –
Cc1cccc(CSc2nc3cccnc3n2Cc2ccc(C(=O)NCc3ccco3)cc2)c1 | inconclusive: 39.8 µM [inhibitor, single point] | –
COc1ccc(N2CCC(CNC(=S)Nc3cccc(C)c3)C2)cc1 (centres undefined) | inconclusive: 17.8 µM [inhibitor, partial curve] | –
COC(=O)c1ccc(C(=O)Nc2ccc(-c3nc4cc(NC(=O)c5ccc(C(=O)OC)cc5)ccc4o3)cc2)cc1 | inconclusive: 17.8 µM [inhibitor, partial curve] | –
CCOC(=O)/C(=C/C1=CC(=C/N(C)C)/C(=O)O1)C(C)=O | inconclusive: 39.8 µM [inhibitor, single point] | –
CCCNC(=O)c1ccc2nc(-c3ccccc3)c(-c3ccccc3)nc2c1 | – | inactive: -16.6%
COc1ccc(/C=C/C(=O)Nc2ccc(OC)nc2)cc1 | inconclusive: 3.55 µM [inhibitor, single point] | –
CCSCCOC(=O)C1=C(C)NC(=O)NC1c1ccccc1 (centres undefined) | – | inactive: -13.4%
COc1cc(/C=C(\C#N)C(=O)Nc2cccc3ncccc23)cc(OC)c1OC | inconclusive: 11.2 µM [inhibitor, partial curve] | –
S=C(NCCCN1CCOCC1)Nc1ccc(-c2nc3ccccc3[nH]2)cc1 | – | inactive: 1.08%
Cc1ccc2c(c1)c1c3n2CCCN(Cc2ccccc2)C3CCC1 (centres undefined) | inconclusive: 17.8 µM [inhibitor, partial curve, poor fit] | –
O=C(CSc1nc(=O)[nH]c2c1CCC2)NCc1ccc(Cl)cc1 | – | inactive: -7.19%
CC(CNC(=O)c1ccc2c(c1)nc1n2CCOC1)c1ccccc1 (centres undefined) | inconclusive: 31.6 µM [inhibitor, single point] | –
O=C1c2ccccc2C(=O)N1/N=C/c1ccc(O)c(O)c1O | active: 3.98 µM | –
Cc1cccc(C)c1OCCn1c(C2CC(=O)N(Cc3ccc(F)cc3)C2)nc2ccccc21 (centres undefined) | inconclusive: 20 µM [inhibitor, partial curve] | –
Cc1ccc(-c2nnc(N3CCN(c4ccccn4)CC3)c3ccccc23)cc1 | inconclusive: 22.4 µM [inhibitor, single point] | –

Compound | Potency | activity, negative = inhibition
Cc1cccc(OCCSc2nc3ccc(NC(=O)COc4ccccc4F)cc3s2)c1 | inconclusive: 0.178 µM [inhibitor, full curve] | –
COc1cc2c(C(=O)c3ccccc3)c3c4c(cc(OC)c(OC)c4c2cc1OC)CCN3C | inconclusive: 7.94 µM [inhibitor, partial curve, poor fit] | –
CC(C)C(NC(=O)C12CC3CC(CC(C3)C1)C2)C(=O)N/N=C/C1=C(N2CCOCC2)C(=C\c2ccc([N+](=O)[O-])cc2)/CC1 (centres undefined) | inconclusive: 28.2 µM [inhibitor, partial curve] | –
CCOc1ccc(CCNC(=O)CCN2N=C(c3ccc(OC)cc3)CCC2=O)cc1OCC | – | inactive: -3.28%
Cc1ccc(Nc2nc(-c3ccccc3)c(CC(=O)O)s2)cc1 | inconclusive: 25.1 µM [inhibitor, single point] | –
O=C(CCC1N=C2c3ccccc3N=C(SCc3ccccc3Cl)N2C1=O)N1CCN(c2ccccc2)CC1 (centres undefined) | inconclusive: 22.4 µM [inhibitor, partial curve, poor fit] | –
CCOc1cc(/C=N/Nc2cccc(C(=O)O)c2)ccc1OC(=O)c1ccccc1 | inconclusive: 17.8 µM [inhibitor, partial curve] | –
CN1/C(=C\C(=S)NC(=O)c2ccccc2Cl)C(C)(C)c2ccccc21 | active: 11.2 µM | –
COc1ccc(/C=N/NC(=O)c2cc(C34CC5CC(CC(C5)C3)C4)[nH]n2)cc1OC | inconclusive: 10 µM [inhibitor, partial curve] | –
CCOC(=O)c1c(-c2ccc(C)o2)csc1NC(=S)NC(=O)c1ccc(F)cc1 | inconclusive: 2.24 µM [inhibitor, full curve, poor fit] | –
CSc1ncc(Cl)c(C(=O)Nc2sc3c(c2C(=O)NCc2ccco2)CCCC3)n1 | inconclusive: 2.24 µM [inhibitor, full curve, poor fit] | –
NC(=S)N/N=C/c1ccccc1OCCSc1ccc(Cl)cc1 | – | inactive: 1.67%
O=C(N/N=C/C1=Cc2ccccc2OC1)c1ccncc1 | – | inactive: -11.2%
CCOC(=O)c1scc(-c2ccccc2)c1S(=O)(=O)N1CCN(c2ccccc2OC)CC1 | – | inactive: -2.63%
CC(=O)c1cccc(NS(=O)(=O)c2ccc(N/C=C/C(=O)c3ccc(F)cc3)cc2)c1 | – | inactive: 11%
C/C(=N\OC(=O)c1ccc(Cl)cc1)c1nccs1 | inconclusive: 28.2 µM [inhibitor, single point] | –
O=C(CNc1ccc2ccccc2c1)N/N=C/c1ccc(OC(=O)/C=C/c2ccco2)cc1 | active: 5.01 µM | –
CCOc1ccc2nc(NC(=O)CN3CCC(n4nnc5cc(F)ccc54)CC3)sc2c1 | inconclusive: 14.1 µM [inhibitor, partial curve] | –
Cc1ccc(N2C(=O)CC(N3CCN(C)CC3)C2=O)cc1 (centres undefined) | – | inactive: 1.69%
CCCCNc1nc2c(c(=O)n(Cc3ccc(Cl)c(Cl)c3)c(=O)n2C)n1C | inconclusive: 39.8 µM [inhibitor, single point] | –
CCOc1ccsc1C(=O)OC | – | inactive: -8.99%
COc1cc(CN2CCN(c3ccccc3C)CC2)cc([N+](=O)[O-])c1O | inconclusive: 14.1 µM [inhibitor, partial curve] | –
COc1cc(OC)cc(-c2cc3nc(C)c(CCC(=O)NC(C)CCc4ccco4)c(C)n3n2)c1 (centres undefined) | inconclusive: 31.6 µM [inhibitor, single point] | –
